Drawing on PubChem BioAssay (NCI), this text covers GI50 and TGI for three molecules.

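Step 1: Grow cells in 96-well plates. Step 2: Expose to compound for 48 hours at 5 concentrations. Step 3: Interpolate endpoints linearly; if unreached, use highest concentration. At the GI50, growth is halved. TGI: concentration producing complete growth inhibition.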

The test system of the assay is NCI-H322M lung. The experiment in a line: DTP human tumour cell line panel, 48 h.
The GI50 is the concentration that inhibits growth by half. What is called TGI is the concentration at which net growth stops. Regarding `C#C[C@]1(O)CC[C@H]2[C@@H]3CC=C4c5sc(Nc6ccncc6)nc5CC[C@]4(C)[C@H]3CC[C@@]21C`, the GI50 is 839 nM and the TGI amounted to 3040 nM.
For `O=C(NNc1nc2cc(F)ccc2n2c(CO)ccc12)c1cnccn1`, the GI50 was 304 nM and the TGI is greater than 100000 nM.
On to `CCN(CC)c1ccc(/C=N/NC(=O)c2ccc(NS(C)(=O)=O)cc2)c(O)c1`, for which the GI50 is 300 nM and the TGI worked out at 22000 nM.
